Experimental data published in PubChem BioAssay AID1508642 (National Center for Advancing Translational Sciences (NCATS), 2021).
Out of some 43,000 compounds screened, about 200 (0.47%) were called active. Not shown: some 12% with an inconclusive outcome. Calls follow the shape of the dose curve; as a rule, active = well fitted cell-killing curve with a large enough effect; inconclusive = small, poorly fitted or top-dose-only effect, or effect the other way; inactive = flat fitted curve, though single readings scatter. The list shows a part of the results.

assay: Cell viability qHTS assay in S16 Pmp22-F2sN cells; details: S16 Pmp22-F2sN Schwann cells (luciferase reporters placed in the Pmp22 gene) viability, CellTiter-Glo, 24 h; series mostly up to 57.5 µM; activity change, negative = cytotoxicity: at the top concentration; also: nearly all actives have a fitted effect of over 65% in size
Procedure, shortened: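 CellTiter-Glo counter-screen, qHTS, 1536-well. Cells: S16(c9) Pmp22-F2sN, 500-1,000/well in DMEM + 10% FBS. Cpd 23 nL pin transfer, 24 h, 37C/5% CO2. Read: luminescence, CCD imager.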
% is scaled to controls: 0 for no effect and ±100 for the full control effect.

SMILES | activity change, negative = cytotoxicity
O=S(=O)(c1ccc(Cl)cc1)c1nnn2c1nc(NCc1ccccc1)c1sccc12 | inactive: 21.8%
CC(=O)N(Cc1cccnc1)c1nc2cc(C)cc(C)c2s1 | inactive: -11%
CCOc1ccc(NC(=O)CCc2c(C)nc3c(c(C)nn3-c3ccccc3)c2C)cc1 | inactive: 13.8%
Cc1ccc(S(=O)(=O)n2nc(C)c(S(=O)(=O)N3CCCCC3)c2C)cc1 | inactive: 10.8%
CCc1ccc(CN(Cc2ccco2)C(=O)c2ccc(C)cc2)cc1 | inactive: -0.0032%
CCCCN(CC)C(=O)C1CCC(CNS(=O)(=O)c2cccc3nsnc23)CC1 (stereo not drawn) | inactive: -2.98%
COc1ccccc1C(=O)N(Cc1ccco1)Cc1ccccc1F | inactive: -14.8%
COc1cc(OC)c(NC(=O)CN(C)S(=O)(=O)c2ccc3c(c2)CCCC(=O)N3)cc1Cl | inactive: -7.74%
CCc1ccc(C(=O)c2cn(CC(=O)Nc3cccc(C)c3C)c3nc(C)ccc3c2=O)cc1 | inactive: 3.37%
COc1cccc(OCc2cc(=O)n3cc(C)sc3n2)c1 | inactive: 1.45%
CCOc1ccc(OCC)c(-n2cnnn2)c1 | inactive: -2.43%
Cc1c(NC(=O)Nc2ccc(Cl)c(C(F)(F)F)c2)c(=O)n(-c2ccccc2)n1C | inactive: -12.7%
Fc1ccccc1N1CCN(c2ncnc3onc(-c4cccc(Cl)c4)c23)CC1 | inactive: -19.9%
COc1ccc(-n2c(SCC(=O)NC3CCCCC3)nc3c([nH]c4ccccc43)c2=O)cc1 | inactive: 11%
COc1ccc(-c2cc3c(=O)n(CC(=O)Nc4cc(C)ccc4C)ccn3n2)cc1 | inactive: -3.68%
Cc1cccn2c(=O)cc(COc3ccc(NC(=O)C(C)Oc4ccccc4)cc3)nc12 (stereo not drawn) | inactive: -11.3%
NS(=O)(=O)c1ccc(NC(=O)CN2CCN(c3ccc(F)cc3)CC2)cc1 | inactive: 0.364%
CCN(CC)CCCNC(=O)C(=O)Nc1ccc2nc3n(c(=O)c2c1)CCCCC3 | inactive: 16.5%
Cc1ccc(Cn2ccnc2SCC(=O)Nc2ccc3c(c2)OCCO3)cc1 | inactive: -2.07%
COc1ccc(/C=C/C(=O)Nc2ccc(Cl)cc2Cl)cc1 | inactive: -3.18%
CC(=O)Nc1cccc(NC(=O)CSc2nccn2Cc2ccco2)c1 | inactive: -2.29%

SMILES | activity change, negative = cytotoxicity
Cc1ccc(CNC(=O)c2cccc(NC(=O)N3CCSc4ncccc43)c2)cc1 | inactive: -18.3%
Cc1ccc(S(=O)(=O)C(CNC(=O)COc2ccc(Cl)cc2)c2ccco2)cc1 (stereo not drawn) | inactive: -25.2%
Cc1cc(C)cc(NC(=O)CCCc2nnc3n(CC(C)C)c(=O)c4sccc4n23)c1 | inactive: 7.85%
CCOc1cc(C2CC(=O)Nc3c2c(=O)nc(SCc2cccc(Cl)c2)n3C)ccc1O (stereo not drawn) | inactive: -13.9%
Cc1ccccc1CNC(=O)c1cc2cccc3c2n1CC(C)S3 (stereo not drawn) | inactive: 2.46%
O=C(NCCCO)C(=O)Nc1c2c(nn1-c1ccccc1)CSC2 | inactive: -6.46%
COc1cccc(CNC(=O)C2CCN(C(=O)c3sccc3-n3cccc3)CC2)c1 | inactive: -1.8%
CCC(CC)C(=O)NCc1nc2cccnc2n1Cc1ccc(F)cc1 | inactive: 17.9%
CCCN(CCC)C(=O)c1cn(CC)c2ccc(S(=O)(=O)N3CCCCC3)cc2c1=O | inactive: 1.03%
Cc1ccc(CSCCC(=O)N2CCN(c3cc(C)ccc3C)CC2)cc1 | inactive: -8.02%
CCCN(CCC)C(=O)C1CCCN(c2ncnc3onc(-c4ccc(F)cc4)c23)C1 (stereo not drawn) | inactive: 6.77%
COc1ccc(-c2noc(CN(C(=O)Cc3ccc(C)cc3)C(C)C)n2)cc1 | inactive: 2.7%
CCC(C)NC(=O)CSc1nnc(-c2ccc(C)cc2)c(-c2ccc(C)cc2)n1 (stereo not drawn) | inactive: -25.6%
COc1cc(C)ccc1OCCSc1nc2ccc(NC(=O)c3cccs3)cc2s1 | inactive: 7.21%
Cc1ccc(C(=O)Nc2ccccc2C(=O)OCc2cc(=O)n3nc(C4CC4)sc3n2)cc1 | inactive: 2.73%
O=C(CN1C(=O)C2(SCC(=O)N2c2ccccc2)c2ccccc21)NCCc1ccccc1 (stereo not drawn) | inactive: 18%
CCc1ccc(NC(=O)CSc2nc3c(sc4ccccc43)c(=O)n2CCN(CC)CC)cc1 | inactive: 1.09%
Cc1ccc(CNS(=O)(=O)c2cc3c(cc2C)N(C)CCO3)cc1 | inactive: 5.55%
Cc1cn2c(=O)cc(COC(=O)c3ccccc3F)nc2s1 | inactive: -10.5%
COc1ccc2nc3sc(C(=O)N4CCN(c5ccc(F)cc5)CC4)cc3cc2c1 | inactive: 11.2%
Cc1ccc(C)c(N2CCN(S(=O)(=O)c3ccc4c(c3)CCCN4C(=O)C3CCC3)CC2)c1 | inactive: -15.5%

SMILES | activity change, negative = cytotoxicity
Cc1ccc(CNC(=O)CN2C(=O)CSc3ccc(S(=O)(=O)N4CCCC4)cc32)cc1 | inactive: 4.18%
CCc1ccc(C(=O)CSc2nc(-c3ccccc3)nc3c2CCCC3)cc1 | inactive: 5.16%
CN(C)c1ccc(CNC(=O)CN2C(=O)CCn3nc(-c4cn(C)c5ccccc45)cc32)cc1 | inactive: -3.61%
COc1cccc(-c2nc3c(c(SCc4ccccc4Cl)n2)Cc2c(CO)cnc(C)c2O3)c1 | inactive: -0.254%
COc1ccc(CNS(=O)(=O)c2ccc(F)c(C(=O)Nc3c(C)cc(C)cc3C)c2)cc1 | inactive: 16%
Cc1cc2oc(C(=O)Nc3sc4c(c3C(=O)NCc3ccccc3)CCCC4)cc(=O)c2cc1C | inactive: 0.189%
CCCn1c2ccccc2c2cnn(CC(=O)NC(C)CC)c(=O)c21 (stereo not drawn) | inactive: 3.37%
CCCCOC(=O)/C(C#N)=C/c1ccc(-c2ccc(Br)cc2)o1 | inactive: -7.71%
CCC(=O)N1CCN(c2nc3c(C)cccc3s2)CC1 | inactive: -3.59%
Cc1ccc(NC(=O)CCCN2C(=O)COc3ccc(C)cc32)c(C)c1 | inactive: -10.7%
Cc1ccc(N2C(=O)CSC23C(=O)N(CC(=O)Nc2ccc(C)cc2C)c2ccccc23)cc1 (stereo not drawn) | inactive: -21.2%
COc1ccc2c(Sc3ccccc3)c(C(=O)N3CCC(C)CC3)[nH]c2c1 | inactive: -1.22%
CCc1cccc(C)c1NC(=O)c1nc2ccccc2nc1N1CCCCC1 | inactive: 0.311%
Cc1ccc([N+](=O)[O-])c(Oc2ncnc3c2oc2ccccc23)c1 | inactive: -3.26%
CCOC(=O)c1c(-c2ccc(C)cc2C)csc1NC(=O)c1ccccc1Cl | inactive: 22.6%
NC(=O)C1CCN(C(=O)c2ccc3c(c2)N(Cc2cccc(Cl)c2)C(=O)c2ccccc2S3(=O)=O)CC1 | inactive: -2.5%
Cc1ccc2c(=O)cc(C(=O)Nc3c(C(=O)c4ccccc4)oc4ccccc34)oc2c1 | inactive: 1.31%
CCOc1ccc(NS(=O)(=O)c2ccc3[nH]cc(C(=O)N(C)C4CCCCC4)c(=O)c3c2)cc1 | inactive: -2.44%
CC(CNC(=O)c1ccc(Nc2nc3ccccc3n3nnnc23)cc1)c1ccccc1 (stereo not drawn) | inactive: 1.55%
COCCNC(=O)Cn1cc2c(n1)-c1c(oc(C(=O)N3CCCC3)c1C)CC2 | inactive: 1.34%
NC(=O)Cn1c(=O)n(CCCCCC(=O)NCc2ccccc2Cl)c(=O)c2sccc21 | inactive: 8.11%
